Experimental findings from article PMC6212790 are described below.

This is one part of the list. At the low end of the ranking the order means little.

The target of the experiment is T1, GST-Rok-C97-191 (UniProt O34857).
T1 sequence: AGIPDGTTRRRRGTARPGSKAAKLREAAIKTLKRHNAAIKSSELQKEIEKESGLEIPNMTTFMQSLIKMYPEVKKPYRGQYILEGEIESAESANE
The experiment in a line: protein binding microarray.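 Note: rank score from −0.5 (least bound) to 0.5 (best bound).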 Conditions: Rok is a gene silencer of Bacillus subtilis; high values mean tight binding; most listed sequences are background and not binding sites; double strand, one strand shown.
The sequence CACGCGGG displayed a binding signal of -0.235 E-score.

In the case of GCAGCCTA, the binding signal was -0.111 E-score.

Sequence TGTAGAAA came in with a binding signal of 0.35 E-score. As for CTGCGCAC, the figure is -0.181 E-score. As for CACGACGA, the figure is 0.0734 E-score; as for CAGGACCG, -0.265 E-score.

AAAACGCC: the binding signal is -0.219 E-score. The result for CGGCCGGA reads -0.136 E-score; that for GCACGCTA, 0.0309 E-score.

The sequence AAGGAGTA displayed a binding signal of -0.115 E-score. For CGCAATCA, the binding signal was determined as 0.0555 E-score. As for GTGTTTCA, the figure is 0.0533 E-score; as for GTATTACA, 0.186 E-score. The result for AATGGGGC reads -0.139 E-score; that for AAGAAGAC, 0.074 E-score; that for CAAACAGG, -0.186 E-score. As for TACAAATA, the figure is 0.359 E-score; as for AACTCCCG, -0.0411 E-score. AATCGCAA: the binding signal is 0.000881 E-score.

GCAATGCC: the binding signal was -0.104 E-score. On to GACAATTA, for which the binding signal amounted to 0.0675 E-score.

CGCACAAC gave a binding signal of -0.025 E-score. The result for GCCGTCCC reads -0.175 E-score. The result for ACATATAT reads 0.4 E-score; that for TAAGCCAA, -0.032 E-score; that for CATGTACG, 0.0809 E-score.

In turn, AGGCGGAA had a binding signal of -0.0614 E-score. As for GCCGTCGC, the figure is -0.194 E-score; as for CTGCCCAG, -0.33 E-score; as for CTTTCAAA, -0.207 E-score. In turn, GCCCGTCA came in with a binding signal of -0.212 E-score. As for CGACACAC, the figure is -0.0695 E-score; as for GGTGGAAA, 0.027 E-score. AAGAAGAT yielded a binding signal of 0.0078 E-score. The result for AGGGTACG reads -0.127 E-score; that for AAAACAGC, 0.0515 E-score. With GCCGCTCC, the binding signal was -0.293 E-score. Sequence CGGGTTAC showed a binding signal of -0.168 E-score. TAGGATAA displayed a binding signal of 0.0184 E-score.

In turn, GTTGGAGA gave a binding signal of -0.0321 E-score. GAAGTGCA: the binding signal is -0.0346 E-score.

For GAACCGCC, the binding signal was -0.164 E-score. CGGCACTC registered a binding signal of -0.0669 E-score. The result for AGACCAAG reads -0.213 E-score. With CCTCCCTA, the binding signal is -0.171 E-score. In the case of CTCTGGTA, the binding signal stood at 0.0733 E-score.

Regarding GTCACAAC, the binding signal is -0.203 E-score. The result for CACGGAAA reads -0.0278 E-score. As for CATTCGTC, the figure is -0.124 E-score; as for AATCCATT, 0.0476 E-score; as for AGATTACG, 0.114 E-score. Consider CTTACACC, for which the binding signal worked out at 0.111 E-score. For ATTACCCA, the binding signal was determined as 0.223 E-score. The result for CGTCACAG reads -0.0393 E-score; that for AGCCGTGG, -0.135 E-score; that for CCAAGTAC, 0.11 E-score.

AAGAGAGA displayed a binding signal of -0.188 E-score. As for AGTGACCG, the figure is -0.155 E-score. Take CGGCCCAC: the binding signal was -0.213 E-score. As for ACCCTTTG, the figure is -0.117 E-score; as for ATTACGGG, -0.016 E-score.

Take AGCTCGGC: the binding signal was -0.0356 E-score.

For the sequence AACATGTA, the binding signal was determined as 0.237 E-score. Regarding ACTCCCAA, the binding signal was -0.0151 E-score. The result for GGGAATGA reads -0.284 E-score. For the sequence ACAACGAT, the binding signal amounted to 0.0651 E-score. GACTACGA gave a binding signal of 0.0584 E-score. The result for CCCAAGAC reads -0.133 E-score.

The sequence ATTCGGGG yielded a binding signal of -0.103 E-score. The sequence CGACCGGC registered a binding signal of -0.134 E-score. With GGTTTCCA, the binding signal was -0.226 E-score. The sequence AACGCTCG came in with a binding signal of -0.199 E-score.

As to GAATTCAA, the binding signal was -0.016 E-score. The result for CCACCACA reads 0.0146 E-score; that for AGTTGTAA, 0.27 E-score.

Sequence TAGCTACA showed a binding signal of 0.353 E-score.

For AGTATGAA, the binding signal came out at 0.202 E-score. The result for GGGCTCGA reads -0.181 E-score.

As for CACCCTAG, the binding signal is -0.0149 E-score. The sequence CAATGGGG displayed a binding signal of -0.222 E-score. Regarding CGGCCAGC, the binding signal was -0.16 E-score. As for TACGATGA, the figure is 0.0784 E-score; as for GTAAGCAA, -0.00275 E-score; as for AAACTCTT, 0.063 E-score.

On to AGTGTGCA, for which the binding signal was -0.123 E-score. The result for TCTGACCA reads -0.248 E-score.

Sequence GACCCCTC had a binding signal of -0.39 E-score. As for CCCGTCAA, the figure is -0.304 E-score.

In turn, CAACTCGC returned a binding signal of 0.0199 E-score. Turning to AATATTAA, the binding signal is 0.285 E-score. The result for ATGCTGGA reads -0.156 E-score; that for CGCCCATA, -0.193 E-score; that for ATTATCCA, 0.0324 E-score. In the case of ATGCACGC, the binding signal is -0.173 E-score. Take TAGTGCCA: the binding signal was -0.0248 E-score. Consider GCGGCAAC, for which the binding signal was -0.135 E-score. The result for CGTAATGA reads 0.0414 E-score; that for AGCTCTCG, 0.0481 E-score; that for GTACCTTA, 0.279 E-score. The result for CGCCTGAC reads -0.301 E-score. The result for AAAAGTAT reads 0.239 E-score; that for ATGTACTA, 0.376 E-score.

The sequence GTTCATGA had a binding signal of 0.0865 E-score. With ACCTCATA, the binding signal was -0.018 E-score. GTGCACAA gave a binding signal of 0.113 E-score.

ATCCATGA: the binding signal was determined as 0.148 E-score. As for ACATCAAA, the figure is 0.02 E-score; as for AAAACTAC, 0.433 E-score; as for AGAGAGCT, -0.122 E-score. AAAAGCGC registered a binding signal of 0.137 E-score. With CTGGCACA, the binding signal is -0.256 E-score. Regarding ACAGAGCG, the binding signal was -0.117 E-score. As for CGAGACTC, the figure is -0.147 E-score; as for ACAATCAT, 0.115 E-score; as for AGGAAGTA, 0.141 E-score.

On to ATTTGAGG, for which the binding signal was -0.0528 E-score. In turn, CTACTGTC came in with a binding signal of 0.234 E-score. The result for GCTGTGAA reads 0.000123 E-score.

Consider AGGCGATC, for which the binding signal was -0.147 E-score. The result for AGGAGGAG reads -0.27 E-score. In the case of ACGAAGGC, the binding signal is -0.285 E-score.

On to TAACTTCA, for which the binding signal is 0.162 E-score.

Sequence ACGATTCT returned a binding signal of 0.252 E-score. As for GGCTACAC, the figure is -0.226 E-score; as for GTGAACAA, 0.0221 E-score. AACTTACA yielded a binding signal of 0.135 E-score.

As to TACGTCAA, the binding signal worked out at 0.0537 E-score.

As for GGAAACAC, the binding signal was -0.216 E-score. The result for ACTTTCAA reads 0.00898 E-score; that for CAGTTGTA, 0.1 E-score. As for ATAACGGG, the binding signal came to 0.0899 E-score. The result for ATCTCTGC reads -0.0825 E-score. As for CACACGTG, the figure is -0.0488 E-score. AGATAGAA registered a binding signal of 0.308 E-score. The result for TGATTGAA reads -0.0411 E-score; that for GATCTTGC, 0.127 E-score. Take TAGTCTGA: the binding signal was 0.176 E-score.

CACTCGTC had a binding signal of -0.215 E-score. As for ATGCAGCA, the figure is -0.212 E-score; as for ACATCTAT, 0.309 E-score. The sequence CCGTGTAG came in with a binding signal of -0.173 E-score. As for TCACGACA, the figure is -0.095 E-score. As for CTCGTACC, the figure is -0.0243 E-score. Take CACTCTAC: the binding signal is -0.0406 E-score. The result for ATCTCGTC reads 0.0835 E-score; that for CGTACTGC, -0.0786 E-score; that for CGGTTCAC, -0.00825 E-score.

ACTGAAGT displayed a binding signal of 0.155 E-score. As for CTGATCGC, the figure is -0.235 E-score; as for GGAGACCC, -0.339 E-score; as for ATGACCGG, -0.048 E-score. As for ACCTTGAA, the figure is -0.0826 E-score. As for CAGGCGCC, the figure is -0.149 E-score; as for CGGTGATA, -0.112 E-score. Consider TCGATAGA, for which the binding signal was determined as 0.231 E-score. AACAGCAA registered a binding signal of 0.0517 E-score.

In the case of ATCAATAA, the binding signal was 0.124 E-score. For the sequence TATCAGAA, the binding signal is 0.0835 E-score. In turn, GGTACGAC registered a binding signal of -0.188 E-score. As for ATGGATAG, the figure is 0.0788 E-score.

For the sequence ACGGCCCG, the binding signal was -0.272 E-score. The result for GCATCTAC reads 0.0595 E-score; that for AACACTCG, 0.016 E-score; that for ACGCTGGC, -0.0717 E-score. As to ACGCAATC, the binding signal stood at 0.0373 E-score. AATCTTTA gave a binding signal of 0.129 E-score.

The sequence CTCAATAC displayed a binding signal of 0.105 E-score.

CACTTGAA: the binding signal is -0.00847 E-score.

As to GTGGTAGA, the binding signal worked out at 0.433 E-score. In the case of CCTCCCAC, the binding signal is -0.142 E-score. The result for AATAGTGG reads 0.168 E-score. Take CAAAGCAG: the binding signal was -0.152 E-score.

For ACGAATTA, the binding signal worked out at 0.208 E-score. As for AAGTCGAA, the figure is -0.0343 E-score.

For the sequence AATCATAG, the binding signal was determined as 0.176 E-score. The result for AAATCCAG reads 0.115 E-score; that for CAAAAGCG, 0.0268 E-score; that for CGACATAA, 0.105 E-score. AATTGCAC showed a binding signal of 0.0389 E-score. For the sequence CCGGGTGC, the binding signal was -0.27 E-score. The result for AATACTGT reads 0.083 E-score. As for CTGACCAG, the figure is -0.171 E-score; as for CTACACAG, 0.147 E-score; as for ATAAACCA, 0.249 E-score. As for AGGTCAAA, the figure is 0.0797 E-score; as for AGGGTTCA, -0.199 E-score. The sequence ACCGGTAA had a binding signal of 0.192 E-score. The result for ATAATGCC reads 0.0188 E-score; that for CCGGGAAC, -0.263 E-score; that for TATGCAAA, 0.156 E-score. The result for GTGCCTGA reads -0.0736 E-score. With ACCAACCG, the binding signal is -0.0348 E-score.

Take ATACCAAT: the binding signal turned out to be 0.301 E-score. The result for GATATTGA reads 0.0914 E-score; that for CCTCACAC, 0.00364 E-score. The sequence AAGCCCTG showed a binding signal of -0.245 E-score. The sequence CATGAGCA had a binding signal of 0.11 E-score. With ACTTAGAC, the binding signal was -0.189 E-score. The result for TCACTACA reads -0.0801 E-score; that for AACATAGG, 0.0412 E-score. Sequence ATTGGTGC gave a binding signal of 0.0558 E-score. In the case of CTTACAAG, the binding signal turned out to be 0.00119 E-score. As for ATGGAGTC, the figure is 0.133 E-score.

On to AAATTGGA, for which the binding signal stood at 0.0993 E-score.

In turn, TCATCGCA returned a binding signal of -0.062 E-score. As for GCAGGCAC, the figure is -0.297 E-score; as for CTGCCTGA, -0.0503 E-score; as for TCAGCCGA, -0.0187 E-score.

Sequence CTGAATAA came in with a binding signal of 0.237 E-score.

Regarding CGAAGCAA, the binding signal was -0.0947 E-score. As for GAAACGGA, the figure is -0.0528 E-score; as for CACCGTGA, -0.0456 E-score; as for TAACGGGA, 0.19 E-score. The result for TGATGGAA reads 0.127 E-score; that for CGGCACGC, -0.195 E-score. As for GGATTGCA, the figure is 0.0474 E-score. In the case of TCACATAA, the binding signal is 0.139 E-score. As for ATGCAGGA, the figure is 0.0131 E-score; as for GTATCGCA, 0.0404 E-score.
